According to PMC4336329 (PLoS ONE, 2015):
Screen size: about 310,000 compounds; about 14,000 (4.5%) showed an effect of 50% or more. Effects have a minus sign here. This is one part of the list.

biological target: human ether-à-go-go-related gene (hERG) potassium channel (human, UniProt Q12809); test: primary screen, population patch clamp on CHO cells stably expressing hERG
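Further: peak tail current of the secondary pulse compared with the same well before compound.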

Sequence of human ether-à-go-go-related gene (hERG) potassium channel (Q12809 whole entry, looked up): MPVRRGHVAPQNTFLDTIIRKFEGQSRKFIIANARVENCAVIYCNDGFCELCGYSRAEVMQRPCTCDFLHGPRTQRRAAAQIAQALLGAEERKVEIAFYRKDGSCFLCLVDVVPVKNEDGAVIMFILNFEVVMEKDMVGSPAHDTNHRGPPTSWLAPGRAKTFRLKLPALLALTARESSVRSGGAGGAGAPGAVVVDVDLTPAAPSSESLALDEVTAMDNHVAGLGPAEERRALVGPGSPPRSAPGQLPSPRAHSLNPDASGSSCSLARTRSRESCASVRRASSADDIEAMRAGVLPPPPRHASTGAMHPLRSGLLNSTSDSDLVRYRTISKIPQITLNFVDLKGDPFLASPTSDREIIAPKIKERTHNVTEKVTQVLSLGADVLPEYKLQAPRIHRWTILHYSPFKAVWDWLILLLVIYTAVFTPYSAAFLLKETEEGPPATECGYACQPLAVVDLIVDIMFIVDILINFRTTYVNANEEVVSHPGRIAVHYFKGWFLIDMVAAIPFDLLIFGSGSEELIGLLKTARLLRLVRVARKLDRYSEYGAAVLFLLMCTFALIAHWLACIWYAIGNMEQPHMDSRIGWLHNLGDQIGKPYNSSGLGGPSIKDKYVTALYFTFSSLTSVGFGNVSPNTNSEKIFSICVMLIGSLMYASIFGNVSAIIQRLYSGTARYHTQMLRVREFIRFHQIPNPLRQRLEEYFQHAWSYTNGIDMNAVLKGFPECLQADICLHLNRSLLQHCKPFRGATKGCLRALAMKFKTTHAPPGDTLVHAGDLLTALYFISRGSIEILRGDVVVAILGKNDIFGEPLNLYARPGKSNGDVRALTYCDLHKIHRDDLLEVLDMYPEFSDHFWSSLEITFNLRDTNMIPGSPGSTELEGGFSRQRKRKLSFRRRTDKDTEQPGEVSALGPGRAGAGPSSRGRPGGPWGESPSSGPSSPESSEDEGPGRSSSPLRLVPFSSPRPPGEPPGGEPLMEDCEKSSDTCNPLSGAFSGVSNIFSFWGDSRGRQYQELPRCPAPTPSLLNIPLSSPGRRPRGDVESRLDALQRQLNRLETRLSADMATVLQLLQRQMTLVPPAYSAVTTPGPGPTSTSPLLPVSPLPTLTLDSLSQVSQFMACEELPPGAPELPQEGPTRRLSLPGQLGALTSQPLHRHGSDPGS

Structure (SMILES)	hERG current change (%, negative = inhibition) at 10uM
CSc1nnc(NC(=O)c2nc(S(=O)(=O)Cc3ccccc3)ncc2Cl)s1	0.719%
CN(CC(=O)Nc1ccc(F)c(F)c1F)C(=O)C1=NN(c2ccccc2)C(=O)CC1	5.7%
O=C(O)c1cccc(NC(=O)c2cccc(S(=O)(=O)N3CCc4ccccc43)c2)c1	11%
CN1CCc2c(sc3nc(NCCO)n(-c4cccc(Cl)c4)c(=O)c23)C1	0.784%
CCC1C2CC3C4N(C)c5ccccc5C45CC(C2C5O)N3[C@@H]1O (some centres unmarked)	-28.5%
c1ccc(-c2noc(C34CC5CC(CC(C5)C3)C4)n2)cc1	14.7%
COCCNC(=O)CN(C(=O)c1ccc(N2CCCC2)nc1)c1ccc(Cl)cc1	2.85%
O=C(O)c1nn2c(c1Br)NC(c1ccccc1)CC2C(F)(F)F (centres unmarked)	12.2%
Cc1ccc(-n2ncc3c(NCc4ccccn4)ncnc32)c(C)c1	-7.46%
Cc1cc2c(cc1S(=O)(=O)NC1CCCCC1C)OCC(=O)N2 (centres unmarked)	-28.1%
Cc1cc(-c2nnc(CSc3nnc(NC(=O)c4ccc(C(C)(C)C)cc4)s3)o2)ccc1[N+](=O)[O-]	4.92%
Cc1ccc(C2=NCCn3nc4cc([N+](=O)[O-])ccc4c32)cc1	8.51%
O=C(NCc1cn2ccsc2n1)Nc1ccc(Cl)cc1	-1.56%
Cc1cc([N+](=O)[O-])nn1CC(=O)NCc1ccccc1	24.2%
O=C(Nc1ccc(NC(=O)C2CCCCC2)nc1)c1ccco1	0.412%
Cc1cccc(-c2noc(CCC(=O)Nc3ccccc3)n2)c1	-4.5%
Cc1ccc(CNC(=O)C2CCN(S(=O)(=O)c3cccnc3)CC2)cc1	-1.14%
Cc1ccc(-n2c(C)cc(C=C(C#N)C#N)c2C)cc1	4.75%
O=C(CCNS(=O)(=O)c1ccccc1C(F)(F)F)NCc1ccc2c(c1)OCO2	-14.5%
Oc1ccccc1C=Nc1cccc2ccccc12	5.3%
COc1cccc(C(=O)Nc2nnc(S(=O)(=O)N3CCCCC3)s2)c1	4.03%
CCC(=O)Nc1c(C)cc(C)cc1Cl	6.01%

Structure (SMILES)	hERG current change (%, negative = inhibition) at 10uM
CCOc1ccccc1N1CCN(C(=O)CCCc2nc3ccccc3s2)CC1	-17.1%
CCCCC1(C(=O)OC)NC(c2ccc(O)cc2)C2C(=O)N(c3ccccc3)C(=O)C21 (centres unmarked)	2.03%
O=C(C[n+]1ccsc1)c1ccccc1.[Br-]	6.28%
Cc1c(NC(=O)CN2CCN(C(c3ccccc3)c3ccccc3)CC2)c(=O)n(-c2ccccc2)n1C	-6.75%
N#Cc1ccsc1NC(=O)CN1C(=O)NC2(CCCCC2)C1=O	4.69%
C#CCn1c(=NC(=O)CN2C(=O)CCC2=O)sc2cccc(OC)c21	1.21%
Clc1ccc(Cc2ccc(Cl)nn2)c(Cl)c1	-17.4%
Cn1c(=O)[nH]c(=O)c2c1nc(Br)n2C/C=N/NC(N)=S	8.85%
N#C/C(C(N)=O)=C1/CCc2ccccc2N1	-9.51%
O=C(NCCc1csc(-c2ccc(C(F)(F)F)cc2)n1)c1cccs1	-1.12%
NC(=O)N/N=C/c1cn(-c2ccccc2)nc1-c1cccnc1	4.92%
Cc1ccc(OCCN2C(=O)c3ccccc3C2=O)cc1	-9.64%
c1ccc2c(c1)ccc1ncccc12	4.5%
Cc1cc(C)c(NC(=O)c2ccc3c(c2)NC(=O)C(C)S3)c(C)c1 (centres unmarked)	-1.8%
C/C(=N/N1CCN(c2ccccn2)CC1)c1ccc([N+](=O)[O-])cc1	-48.7%
Cc1ccc(S(=O)(=O)C2(C(=O)N3CCCC(C)C3)CC2)cc1 (centres unmarked)	-7.54%
COC(=O)C1=C(c2ccc(F)cc2OCc2ccccc2)C[C@@H]2CC[C@H]1N2C(=O)NCCc1ccc(F)cc1	13.6%
O=C(O)CSc1c2c(nc3cc(C(=O)NCCN4CCOCC4)ccc13)CCC2	-6.18%
CCOP(=O)(OCC)c1cc(C)c(O)c(C(C)(C)C)c1	-3.41%
Cl.N=c1n(CCN2CCCCC2)c2ccccc2n1CC(O)c1ccco1 (centres unmarked)	-55.2%
CC(OC(=O)CCC(=O)c1cccs1)C(=O)NC1CCCCC1C (centres unmarked)	-6.24%
CS(=O)(=O)N(CC(=O)Nc1ccccc1C(=O)NCc1ccco1)c1ccccc1F	-0.48%
